# Data reported in the supplement of paper PMC10670038.
# Structures can show the parent of a compound that is named as a salt. ± gives the standard deviation of the averaged measurements. The full ranking holds about 2,000 compounds; the median of “relative cell viability vs DMSO, compound + 0.2 uM CuET” is about 1, and the lowest 2% start at about 0.25. The list shows a part of the results.
# System: TE10
# Assay: relative cell viability vs DMSO, compound + 0.2 uM CuET (fraction); TE10 is an esophageal squamous carcinoma line; higher = less cytotoxic
# Conditions: 2 µM; co-treatment: CuET (bis(diethyldithiocarbamate)copper) 0.2 uM; 48 h
# Description: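 TE10 ESCC cells (1,000/well, 384-well plates) were treated with Selleck bioactive library compounds at 2 uM combined with 0.2 uM CuET (copper diethyldithiocarbamate) for 48 h. Viability was read by CellTiter-Glo and expressed relative to DMSO wells. Two technical replicates (A, B).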
row,Structure (SMILES),relative cell viability
1,O=c1c(O)c(-c2ccc(O)cc2O)oc2cc(O)cc(O)c12 [Morin Hydrate],0.979 ± 0.075
2,COc1ccc(C2CNC(=O)C2)cc1OC1CCCC1 (stereo not drawn) [S- (+)-Rolipram],1.04 ± 0.031
3,COc1ccc(C2CNC(=O)C2)cc1OC1CCCC1 (stereo not drawn) [Rolipram],1.17 ± 0.036
4,CC(=O)Nc1nc(C)c(-c2ccc(Cl)c(S(=O)(=O)NCCO)c2)s1,0.884 ± 0.06
5,C[C@H]1C[C@@H]2[C@H]([C@@H](O)C[C@@]3(C)[C@H]2CC[C@]3(O)C(=O)CO)[C@@]2(C)C=CC(=O)C=C12 [Methylprednisolone],1.19 ± 0.014
6,COc1ccccc1OCC(O)CN1CCN(CC(=O)Nc2c(C)cccc2C)CC1 (stereo not drawn) [Ranolazine],1.09 ± 0.11
7,COc1ccccc1OCC(O)CN1CCN(CC(=O)Nc2c(C)cccc2C)CC1 (stereo not drawn) [Ranolazine 2HCl],1.23 ± 0.072
8,CN(C)C(=S)NN=C(c1ccccn1)c1ccccn1,0.943 ± 0.047
9,COc1cc([C@@H]2c3cc4c(cc3[C@@H](O[C@@H]3O[C@@H]5CO[C@@H](C)O[C@H]5[C@H](O)[C@H]3O)[C@H]3COC(=O)[C@H]23)OCO4)cc(OC)c1O [Etoposide],0.833 ± 0.2
10,CCCNCC(O)COc1ccccc1C(=O)CCc1ccccc1 (stereo not drawn) [Propafenone HCl],1.05 ± 0.13
11,O=C1c2ccc(Nc3ccc(F)cc3F)cc2CCc2ccc(OC[C@H](O)CO)cc21 [Skepinone-L],1.17 ± 0.018
12,CC(NC(=O)C(O)c1cc(F)cc(F)c1)C(=O)NC1C(=O)N(C)c2ccccc2-c2ccccc21 (stereo not drawn),1.07 ± 0.058
13,CN(C)c1nc(N(C)C)nc(N(C)C)n1 [Altretamine],1.251 ± 0.0082
14,Nc1nc2n[nH]nc2c(=O)[nH]1 [Azaguanine-8],1.22 ± 0.091
15,O=C(O)c1cc(-c2ccccc2)nc2ccccc12 [Cinchophen],1.02 ± 0.034
16,CC(=O)O[C@]1(C(C)=O)CC[C@H]2[C@@H]3C[C@H](C)C4=CC(=O)CC[C@]4(C)[C@H]3CC[C@@]21C [Medroxyprogesterone acetate],1.01 ± 0.067
17,COc1cc2c(Oc3ccc4[nH]c(C)cc4c3F)ncnc2cc1OCCCN1CCCC1 [Cediranib (AZD2171)],0.948 ± 0.061
18,O=c1cc[nH]c(=S)[nH]1 [2-Thiouracil],1.1 ± 0.12
19,Cc1cccc(C#Cc2ccccc2)n1,0.729 ± 0.23
20,CC(C)(C)c1ccc(-c2nc3ccccc3[nH]2)cc1,0.3 ± 0.029
21,O=C(/C=C/c1ccc(CN(CCO)CCc2c[nH]c3ccccc23)cc1)NO [LAQ824 (Dacinostat)],0.145 ± 0.0072
22,Cc1nc(-c2cn3c(n2)-c2ccc(-c4cnn(C(C)(C)C(N)=O)c4)cc2OCC3)n(C(C)C)n1,0.675 ± 0.072
23,Cc1c(F)cc(C(=O)NC2CC2)cc1-c1ccc(C(=O)NCC(C)(C)C)cn1,1.07 ± 0.098
